Source: the supplement of paper PMC4967469
IC50 is the fitted dose that halves viability relative to control wells, and lower means more sensitive; where the fit passes the top or lowest dose, that dose stands as a limit. AUC, from the same fit, is the share of area under the viability curve across the 256-fold dose range; it is 1 without any effect and falls as sensitivity rises. For some assays here: A top dose marked as inferred was calculated from the reported fits. For some assays here: An entry number marks a drug with two screens in the source, which often give different values.

What was measured:
Assay in all cases: Viability of human cancer cell lines after 72 h of drug (GDSC screen)
[1] = compound: CC/C(=C(\c1ccccc1)c1ccc(OCCN(C)C)cc1)c1ccccc1 [Tamoxifen]; conditions: top dose 5 µM
Procedure: (§1)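 Human cancer cell lines in 384-well plates, medium with 10% serum, drug for 72 h over a 256-fold dose range (nine 2-fold or five 4-fold steps up to the top dose). Adherent lines were fixed and stained with the nucleic acid dye Syto60, suspension lines read with resazurin; signal relative to control wells, capped at 0 and 100%. One two-parameter sigmoid per drug and line, fitted in a mixed model over all curves with the slope shared within a line.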

[2] = compound: O=S(=O)(O)c1ccc2cc(N=Nc3cc(S(=O)(=O)O)c4cccnc4c3O)ccc2c1 [NSC-87877]; conditions: top dose 16 µM; top dose inferred
Procedure: as §1

[3] = compound: O=C(Nc1ccc(OC(F)(F)F)cc1)c1sccc1NCc1ccnc2ccccc12 [OSI-930]; conditions: top dose 10.24 µM
Procedure: as §1

[4] = compound: O=C(Nc1cccc(Nc2ncc(Br)c(NCCc3cnc[nH]3)n2)c1)N1CCCC1 [BX-912]; conditions: top dose 10.24 µM; top dose inferred
Procedure: as §1

[5] = compound: Cc1c(N)nc([C@H](CC(N)=O)NC[C@H](N)C(N)=O)nc1C(=O)N[C@H](C(=O)N[C@H](C)[C@@H](O)[C@H](C)C(=O)N[C@H](C(=O)NCCc1nc(-c2nc(C(=O)NCCC[S+](C)C)cs2)cs1)[C@@H](C)O)[C@@H](OC1OC(CO)C(O)C(O)C1OC1OC(CO)C(O)C(OC(N)=O)C1O)c1cnc[nH]1 [Bleomycin]
Procedure: as §1

[6] = compound: O=C(/C=C/c1ccc(CN(CCO)CCc2c[nH]c3ccccc23)cc1)NO [LAQ824]; conditions: top dose 1.024 µM; top dose inferred
Procedure: as §1

[7] = compound: CCCC(=O)OCc1ccc(OC(=O)/C=C(C)/C=C/C=C(C)/C=C/C2=C(C)CCCC2(C)C)cc1 [VNLG/124]; conditions: top dose 5.12 µM; top dose inferred
Procedure: as §1

[8] = compound: CN(NC(=O)CC(=O)NN(C)C(=S)c1ccccc1)C(=S)c1ccccc1 [Elesclomol]; conditions: top dose 0.2 µM; top dose inferred
Procedure: as §1

[9] = compound: Cc1ccc(NC(=O)c2ccc(CN3CCN(C)CC3)cc2)cc1Nc1nc(-c2cccnc2)cs1 [Masitinib]; conditions: top dose 20 µM
Procedure: as §1

[10] = top dose 50 µM, screen: GDSC drug entry 1378, top dose inferred
[11] = top dose 64 µM, screen: GDSC drug entry 190

Cell Line | AUC [1] | IC50 [1] | AUC [2] | IC50 [2] | AUC [3] | IC50 [3] | AUC [4] | IC50 [4] | AUC [5, 10] | IC50 [5, 10] | AUC [5, 11] | IC50 [5, 11] | AUC [6] | IC50 [6] | AUC [7] | IC50 [7] | AUC [8] | IC50 [8] | AUC [9] | IC50 [9]
SiHa (cervix, adherent) | 0.979 | > 5 µM | 0.956 | > 16 µM | 0.979 | > 10.2 µM | 0.974 | > 10.2 µM | 0.822 | 35.4 µM | 0.983 | > 64 µM | 0.927 | > 1.02 µM | 0.983 | > 5.12 µM | 0.655 | 0.0361 µM | 0.983 | > 20 µM
SU-DHL-4 (B-cell lymphoma, suspension) | 0.997 | > 5 µM | 0.997 | > 16 µM | 0.996 | > 10.2 µM | 0.828 | 4.07 µM | 0.995 | > 50 µM | 0.79 | 20.4 µM | 0.451 | 0.0488 µM | 0.997 | > 5.12 µM | 0.997 | > 0.2 µM | 0.916 | 14.3 µM
NCI-H1838 (lung adenocarcinoma, adherent) | 0.985 | > 5 µM | 0.981 | > 16 µM | 0.976 | > 10.2 µM | 0.972 | > 10.2 µM | 0.91 | > 50 µM | 0.736 | 22.3 µM | 0.957 | > 1.02 µM | 0.986 | > 5.12 µM | 0.786 | 0.107 µM | 0.913 | > 20 µM
NCI-H1092 (small cell lung carcinoma, suspension) | 0.989 | > 5 µM | 0.987 | > 16 µM | 0.99 | > 10.2 µM | 0.901 | > 10.2 µM | 0.968 | > 50 µM | 0.944 | > 64 µM | 0.538 | 0.0811 µM | 0.988 | > 5.12 µM | 0.896 | > 0.2 µM | 0.956 | > 20 µM
SUIT-2 (pancreas, adherent) | 0.985 | > 5 µM | 0.986 | > 16 µM | 0.967 | > 10.2 µM | 0.906 | > 10.2 µM | 0.76 | 18.5 µM | 0.322 | 1.24 µM | 0.526 | 0.0757 µM | 0.98 | > 5.12 µM | 0.61 | 0.0254 µM | 0.928 | > 20 µM
NCI-H1048 (small cell lung carcinoma, adherent) | 0.989 | > 5 µM | 0.985 | > 16 µM | 0.948 | > 10.2 µM | 0.7 | 2.18 µM | 0.478 | 2.73 µM | 0.344 | 1.55 µM | 0.733 | 0.272 µM | 0.988 | > 5.12 µM | 0.537 | 0.0156 µM | 0.879 | 17 µM
SUP-HD1 (Hodgkin lymphoma, suspension) | 0.979 | > 5 µM | 0.976 | > 16 µM | 0.87 | 8.78 µM | 0.663 | 1.77 µM | 0.357 | 1.28 µM | 0.434 | 2.67 µM | 0.381 | 0.0306 µM | 0.988 | > 5.12 µM | 0.983 | > 0.2 µM | 0.888 | > 20 µM
NB12 (neuroblastoma, adherent) | 0.967 | > 5 µM | 0.976 | > 16 µM | 0.924 | > 10.2 µM | 0.864 | > 10.2 µM | 0.767 | 25.2 µM | 0.839 | > 64 µM | 0.512 | 0.0699 µM | 0.953 | > 5.12 µM | 0.705 | 0.0582 µM | 0.901 | > 20 µM
SK-UT-1 (soft tissue, adherent) | 0.984 | > 5 µM | 0.967 | > 16 µM | 0.973 | > 10.2 µM | 0.931 | > 10.2 µM | 0.072 | < 0.195 µM | 0.081 | < 0.25 µM | 0.541 | 0.082 µM | 0.988 | > 5.12 µM | 0.533 | 0.0152 µM | 0.956 | > 20 µM
HC-1 (hairy cell leukaemia, suspension) | 0.979 | > 5 µM | 0.98 | > 16 µM | 0.913 | > 10.2 µM | 0.931 | > 10.2 µM | 0.349 | 1.22 µM | 0.313 | 1.23 µM | 0.375 | 0.0295 µM | 0.888 | > 5.12 µM | 0.626 | 0.0274 µM | 0.841 | 13.1 µM
KE-37 (lymphoblastic leukaemia, suspension) | 0.994 | > 5 µM | 0.981 | > 16 µM | 0.935 | > 10.2 µM | 0.24 | 0.143 µM | 0.907 | 39.4 µM | 0.796 | 22.3 µM | 0.149 | 0.00794 µM | 0.973 | > 5.12 µM | 0.669 | 0.0326 µM | 0.901 | 14.9 µM
SU-DHL-5 (B-cell lymphoma, suspension) | 0.982 | > 5 µM | 0.991 | > 16 µM | 0.863 | 5.49 µM | 0.301 | 0.208 µM | 0.442 | 2.26 µM | 0.365 | 1.88 µM | 0.196 | 0.0111 µM | 0.994 | > 5.12 µM | 0.394 | 0.0069 µM | 0.885 | 12.7 µM
COLO-680N (oesophagus, adherent) | 0.985 | > 5 µM | 0.975 | > 16 µM | 0.986 | > 10.2 µM | 0.978 | > 10.2 µM | 0.922 | > 50 µM | 0.56 | 6.03 µM | 0.365 | 0.0253 µM | 0.986 | > 5.12 µM | 0.943 | > 0.2 µM | 0.922 | > 20 µM
